In PubChem BioAssay AID588855 (National Center for Advancing Translational Sciences (NCATS), 2011):
The campaign covered roughly 410,000 compounds. About 5,000 (1.2%) were called active. Inconclusive means that the source gave no clear call. Such entries were picked first, then a sample of the others. The call rests on the fitted dose curve; in most records, active means well fitted inhibition curve with a large enough effect; inconclusive means small, poorly fitted or top-dose-only effect; inactive means no such curve, though single readings can be large or run the other way. Where the call is inconclusive, the potency comes from a doubtful curve fit.

Test: qHTS for Inhibitors of TGF-b; further: nearly all actives have a fitted effect of over 65% in size
Conditions: HepG2 CAGA-GFP TGF-b/SMAD3 reporter, GFP fluorescence, 18 h, TGF-beta stimulated, 500 pg/mL final; series mostly up to 46.1 µM
Outline: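 Inhibition was scored as loss of TGF-beta-induced (500 pg/mL final, 18 hours, 37 degrees C) GFP in HEPG2 cells carrying a CAGA-GFP reporter, in DMEM with 1% FBS. Well GFP was summed per cell; Activity was normalised to unstimulated and stimulated DMSO wells, then concentration-response fitting.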
Potency means the concentration at half of the fitted maximal effect; tags describe the fitted curve by direction and shape.

Structure (SMILES) | Potency
COc1ccc(NC(=O)CCc2c(C)nn(-c3ccc(N4CCCC4)nn3)c2C)cc1Cl | inconclusive: 35.5 µM [inhibitor, single point]
Cn1c(CCN2CCCC2)nc2cc(NS(=O)(=O)c3ccccc3)ccc21 | inconclusive: 17.8 µM [inhibitor, single point]
CCOC(=O)c1c(-c2ccc(C)cc2)csc1NC(=O)/C(C#N)=C/c1ccc(O)c(OC)c1 | inactive
COc1cc(C)ccc1OCC(=O)Nc1ccccc1N1CCOCC1 | inactive
CN1CCN(C2=Cc3ccccc3Sc3cc(F)c(Cl)cc32)CC1 | inconclusive: 35.5 µM [inhibitor, single point]
COc1ccc(C(=O)Nc2ccccc2C(=O)NCCCn2ccnc2)cc1 | inconclusive: 4.47 µM [inhibitor, full curve, poor fit]
COc1cc(OC)c2c(-c3cccc(-c4ccc(C#N)cc4)c3)cc(=O)oc2c1 | inconclusive: 10 µM [inhibitor, partial curve, poor fit]
CCCCNc1nc(-c2ccccc2)cc(C(F)(F)F)c1C(N)=O | inconclusive: 20 µM [inhibitor, partial curve, poor fit]
COCCNC(=S)N/N=C(\C)c1cccc(OC)c1 | inconclusive: 35.5 µM [inhibitor, single point]
O=C(NNc1nc2c(F)cccc2s1)c1cc(=O)c2ccccc2o1 | inconclusive: 25.1 µM [inhibitor, single point]
CCc1nnc(NC(=O)CCC(=O)N2CCN(c3cc(Cl)ccc3C)CC2)s1 | inactive
Nc1nccc(SCc2ccc(Cl)cc2Cl)n1 | inactive
CCC1(C)Cc2c(sc3nnn(CC(=O)Nc4cccc5ccccc45)c(=O)c23)CO1 (centres undefined) | inconclusive: 10 µM [inhibitor, partial curve, poor fit]
Cn1nc(C(=O)NCc2ccccn2)c2ccccc2c1=O | inactive
COC(=O)c1ccc(N/N=C/c2cc([N+](=O)[O-])cc(OC)c2O)cc1 | inactive
CCN1C(=O)[C@@H]2[C@@H](c3ccc(-c4ccc(C(C)=O)cc4)cc3)N3CCCC[C@@]3(C(=O)OC)[C@@H]2C1=O | inconclusive: 0.112 µM [inhibitor, full curve, poor fit]
CC1(Cc2ccccc2Cl)C(=O)Nc2cc(-c3ccccc3Cl)ccc21 (centres undefined) | inconclusive: 22.4 µM [inhibitor, single point]
CCOC(=O)N1CCc2c(sc(NCc3cc(OC)ccc3OC)c2C(=O)Nc2cc(OC)ccc2OC)C1 | inactive
COc1cccc2c1OC1(C)CC2NC(=O)N1c1cccc(C(=O)Nc2ccc3c(c2)OCCO3)c1 (centres undefined) | inconclusive: 4.47 µM [inhibitor, full curve]
